Publication PMC5551570
Results are given in words; binding and its absence hold for the method and conditions named. Binding seen in cells or lysates may run through a third protein. Some results given as binding are weak or reduced against the parent protein; the word gives no strength. Each block holds one molecule with its values, some of them ahead of it.

Sequences of proteins named here, by UniProt entry; tags and fusion partners are left off. A change or cut given only in a name is not applied to a line headed by its entry. A line that says so, or that is headed by a name, gives the form on record, which may keep a tag or linker. Residues count along the entry.
WT 1N4R human tau (P10636, form named): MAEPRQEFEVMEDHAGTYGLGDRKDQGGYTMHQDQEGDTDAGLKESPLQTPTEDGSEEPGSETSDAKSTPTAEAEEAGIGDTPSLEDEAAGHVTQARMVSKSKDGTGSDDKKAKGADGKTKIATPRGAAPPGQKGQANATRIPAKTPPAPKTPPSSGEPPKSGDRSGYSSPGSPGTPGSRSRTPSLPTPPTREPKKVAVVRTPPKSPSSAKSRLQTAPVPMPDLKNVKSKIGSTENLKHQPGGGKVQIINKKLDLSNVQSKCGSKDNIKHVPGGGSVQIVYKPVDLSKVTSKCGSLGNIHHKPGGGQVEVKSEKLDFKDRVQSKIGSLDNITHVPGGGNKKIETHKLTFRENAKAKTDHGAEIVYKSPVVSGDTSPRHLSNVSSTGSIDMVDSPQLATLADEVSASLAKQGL
UniProt P35569: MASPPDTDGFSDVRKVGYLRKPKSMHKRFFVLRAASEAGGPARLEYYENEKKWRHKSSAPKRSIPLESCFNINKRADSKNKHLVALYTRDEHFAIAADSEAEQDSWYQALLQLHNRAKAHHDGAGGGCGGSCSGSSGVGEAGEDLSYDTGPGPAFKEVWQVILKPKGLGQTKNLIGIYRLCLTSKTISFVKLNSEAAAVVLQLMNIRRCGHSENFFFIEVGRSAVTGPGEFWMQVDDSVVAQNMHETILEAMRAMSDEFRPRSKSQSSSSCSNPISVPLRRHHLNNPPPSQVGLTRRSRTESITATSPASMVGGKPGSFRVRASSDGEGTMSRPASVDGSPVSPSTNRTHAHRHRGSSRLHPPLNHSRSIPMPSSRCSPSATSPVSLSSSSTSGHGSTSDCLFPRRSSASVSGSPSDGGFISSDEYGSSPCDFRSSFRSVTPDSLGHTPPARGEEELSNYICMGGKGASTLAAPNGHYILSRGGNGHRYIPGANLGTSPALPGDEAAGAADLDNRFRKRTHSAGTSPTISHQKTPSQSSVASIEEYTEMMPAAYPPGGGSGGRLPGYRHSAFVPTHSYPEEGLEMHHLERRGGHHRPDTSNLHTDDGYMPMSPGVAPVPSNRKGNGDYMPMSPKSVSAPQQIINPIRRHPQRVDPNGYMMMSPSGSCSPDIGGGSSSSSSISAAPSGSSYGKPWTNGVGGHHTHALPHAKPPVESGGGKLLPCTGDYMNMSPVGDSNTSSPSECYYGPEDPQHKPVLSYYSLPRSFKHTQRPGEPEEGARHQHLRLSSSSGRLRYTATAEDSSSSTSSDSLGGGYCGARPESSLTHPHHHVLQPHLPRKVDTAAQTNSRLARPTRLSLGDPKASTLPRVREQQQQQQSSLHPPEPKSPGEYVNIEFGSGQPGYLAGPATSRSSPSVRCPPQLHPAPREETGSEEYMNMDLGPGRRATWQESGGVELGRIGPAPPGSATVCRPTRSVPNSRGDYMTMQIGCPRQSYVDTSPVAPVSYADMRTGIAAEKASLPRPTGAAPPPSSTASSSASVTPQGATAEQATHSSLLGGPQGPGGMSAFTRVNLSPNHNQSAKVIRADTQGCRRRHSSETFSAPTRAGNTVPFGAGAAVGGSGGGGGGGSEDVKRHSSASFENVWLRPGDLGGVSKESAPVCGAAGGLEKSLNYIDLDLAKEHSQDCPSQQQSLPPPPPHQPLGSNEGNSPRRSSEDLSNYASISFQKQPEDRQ
UniProt P15208, residues 28-1372: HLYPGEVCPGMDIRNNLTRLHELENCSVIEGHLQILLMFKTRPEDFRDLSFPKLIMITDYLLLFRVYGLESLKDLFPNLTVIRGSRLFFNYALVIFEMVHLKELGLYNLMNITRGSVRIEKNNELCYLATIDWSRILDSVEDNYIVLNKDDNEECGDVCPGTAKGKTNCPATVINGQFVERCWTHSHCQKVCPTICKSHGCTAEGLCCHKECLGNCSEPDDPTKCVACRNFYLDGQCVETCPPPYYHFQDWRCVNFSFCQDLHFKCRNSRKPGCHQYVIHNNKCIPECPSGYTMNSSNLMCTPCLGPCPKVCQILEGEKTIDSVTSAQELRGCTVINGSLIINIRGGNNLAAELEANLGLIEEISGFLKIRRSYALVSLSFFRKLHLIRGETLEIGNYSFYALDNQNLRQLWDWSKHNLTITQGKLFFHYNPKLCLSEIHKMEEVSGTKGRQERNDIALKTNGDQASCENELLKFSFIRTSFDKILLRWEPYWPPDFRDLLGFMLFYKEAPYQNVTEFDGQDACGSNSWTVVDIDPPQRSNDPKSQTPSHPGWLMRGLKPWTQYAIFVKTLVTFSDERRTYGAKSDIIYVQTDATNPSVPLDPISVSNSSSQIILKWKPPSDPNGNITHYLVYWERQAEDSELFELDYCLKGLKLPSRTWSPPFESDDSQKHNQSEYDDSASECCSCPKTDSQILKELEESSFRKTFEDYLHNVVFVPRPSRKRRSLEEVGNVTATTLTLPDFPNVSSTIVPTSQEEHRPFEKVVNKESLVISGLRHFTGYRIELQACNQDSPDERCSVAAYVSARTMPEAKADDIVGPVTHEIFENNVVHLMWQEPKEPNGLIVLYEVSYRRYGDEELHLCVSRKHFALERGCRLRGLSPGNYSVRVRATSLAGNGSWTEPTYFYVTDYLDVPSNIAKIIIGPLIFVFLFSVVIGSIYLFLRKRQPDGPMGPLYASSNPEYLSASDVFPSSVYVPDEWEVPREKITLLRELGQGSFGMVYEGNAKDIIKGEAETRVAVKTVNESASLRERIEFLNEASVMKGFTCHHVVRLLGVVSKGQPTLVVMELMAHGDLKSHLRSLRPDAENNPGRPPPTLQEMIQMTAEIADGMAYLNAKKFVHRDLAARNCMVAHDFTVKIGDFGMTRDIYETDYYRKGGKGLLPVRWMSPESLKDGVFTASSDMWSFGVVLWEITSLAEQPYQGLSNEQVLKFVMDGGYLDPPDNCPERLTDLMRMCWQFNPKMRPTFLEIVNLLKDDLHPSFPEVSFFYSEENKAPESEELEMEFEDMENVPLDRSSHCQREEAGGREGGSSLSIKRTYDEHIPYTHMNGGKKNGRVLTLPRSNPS
UniProt O08586: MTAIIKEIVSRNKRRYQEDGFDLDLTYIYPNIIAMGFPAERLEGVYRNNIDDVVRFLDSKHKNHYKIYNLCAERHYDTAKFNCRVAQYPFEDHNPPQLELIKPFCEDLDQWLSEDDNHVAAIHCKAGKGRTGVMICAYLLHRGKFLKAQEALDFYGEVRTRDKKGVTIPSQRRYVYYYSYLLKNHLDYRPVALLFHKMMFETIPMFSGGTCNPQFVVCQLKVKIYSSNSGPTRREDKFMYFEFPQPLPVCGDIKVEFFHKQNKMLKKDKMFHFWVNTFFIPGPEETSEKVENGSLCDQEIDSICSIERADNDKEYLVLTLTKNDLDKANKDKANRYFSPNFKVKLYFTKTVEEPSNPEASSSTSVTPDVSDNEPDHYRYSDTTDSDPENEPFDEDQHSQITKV

Molecular target: WT 1N4R human tau (human) (UniProt P10636)
Assay: co-IP; extract of N1E115 cells transfected with WT 1N4R hTau (200 ug supernatant protein; 50 mM Tris-HCl pH 7.4, 150 mM NaCl, 1 mM EDTA, 1% Nonidet, 0.5% sodium deoxycholate) incubated with antibody to tau (tau5) or PTEN and anti-IgG mouse beads for one night at 4°C; eluate blotted

Molecule: IRS-1 (from UniProt P35569 1-1233)
binding: no binding

Molecule: insulin receptor (IR) (from UniProt P15208 28-1372)
binding: no binding

B1: protein tyrosine phosphatase 1B (PTP1B) (enzyme, UniProt P35821 1-432)
chain: MEMEKEFEEIDKAGNWAAIYQDIRHEASDFPCKVAKLPKNKNRNRYRDVSPFDHSRIKLHQEDNDYINASLIKMEEAQRSYILTQGPLPNTCGHFWEMVWEQKSRGVVMLNRIMEKGSLKCAQYWPQQEEKEMVFDDTGLKLTLISEDVKSYYTVRQLELENLTTKETREILHFHYTTWPDFGVPESPASFLNFLFKVRESGSLSLEHGPIVVHCSAGIGRSGTFCLADTCLLLMDKRKDPSSVDIKKVLLEMRRFRMGLIQTADQLRFSYLAVIEGAKFIMGDSSVQDQWKELSREDLDLPPEHVPPPPRPPKRTLEPHNGKCKELFSSHQWVSEETCGDEDSLAREEGRAQSSAMHSVSSMSPDTEVRRRMVGGGLQSAQASVPTEEELSSTEEEHKAHWPSHWKPFLVNVCMATLLATGAYLCYRVCFH
binding: no binding

Second part, the molecule after the results:

binding: binds
Molecule: phosphatase and tensin homologue on chromosome 10 (PTEN), in N1E115 cells (from UniProt O08586 1-403) (enzyme)

binding: no binding
B2: SH2 domain containing inositol 5-phosphatase 2 (SHIP2) (enzyme, UniProt Q6P549 1-1257)
chain: MASVCGTPSPGGALGSPAPAWYHRDLSRAAAEELLARAGRDGSFLVRDSESVAGAFALCVLYQKHVHTYRILPDGEDFLAVQTSQGVPVRRFQTLGELIGLYAQPNQGLVCALLLPVEGEREPDPPDDRDASDVEDEKPPLPPRSGSTSISAPVGPSSPLPTPETPTTPAAESTPNGLSTVSHEYLKGSYGLDLEAVRGGASNLPHLTRTLVTSCRRLHSEVDKVLSGLEILSKVFDQQSSPMVTRLLQQQSLPQTGEQELESLVLKLSVLKDFLSGIQKKALKALQDMSSTAPPAPLQPSIRKAKTIPVQAFEVKLDVTLGDLTKIGKSQKFTLSVDVEGGRLVLLRRQRDSQEDWTTFTHDRIRQLIKSQRVQNKLGVVFEKEKDRTQRKDFIFVSARKREAFCQLLQLMKNRHSKQDEPDMISVFIGTWNMGSVPPPKNVTSWFTSKGLGKALDEVTVTIPHDIYVFGTQENSVGDREWLDLLRGGLKELTDLDYRPIAMQSLWNIKVAVLVKPEHENRISHVSTSSVKTGIANTLGNKGAVGVSFMFNGTSFGFVNCHLTSGNEKTTRRNQNYLDILRLLSLGDRQLSAFDISLRFTHLFWFGDLNYRLDMDIQEILNYISRREFEPLLRVDQLNLEREKHKVFLRFSEEEISFPPTYRYERGSRDTYAWHKQKPTGVRTNVPSWCDRILWKSYPETHIICNSYGCTDDIVTSDHSPVFGTFEVGVTSQFISKKGLSKTSDQAYIEFESIEAIVKTASRTKFFIEFYSTCLEEYKKSFENDAQSSDNINFLKVQWSSRQLPTLKPILADIEYLQDQHLLLTVKSMDGYESYGECVVALKSMIGSTAQQFLTFLSHRGEETGNIRGSMKVRVPTERLGTRERLYEWISIDKDDTGAKSKVPSVSRGSQEHRSGSRKPASTETSCPLSKLFEEPEKPPPTGRPPAPPRAVPREEPLNPRLKSEGTSEQEGVAAPPPKNSFNNPAYYVLEGVPHQLLPLEPPSLARAPLPPATKNKVAITVPAPQLGRHRTPRVGEGSSSDEDSGGTLPPPDFPPPPLPDSAIFLPPNLDPLSMPVVRGRSGGEARGPPPPKAHPRPPLPPGTSPASTFLGEVASGDDRSCSVLQMAKTLSEVDYAPGPGRSALLPNPLELQPPRGPSDYGRPLSFPPPRIRESIQEDLAEEAPCPQGGRASGLGEAGMGAWLRAIGLERYEEGLVHNGWDDLEFLSDITEEDLEEAGVQDPAHKRLLLDTLQLSK
